# Values joined by “and” are separate entries in the source; they are usually repeats but may differ in a detail not shown here. Identical values can stand only once. Counter-ions that a name gives are not always drawn. ± gives the standard deviation of the averaged measurements. Over roughly 2,000 compounds, “relative cell viability vs DMSO, compound alone” has its median near 1.1; the lowest 2% begin near 0.29. Some of the results follow.
# System: TE10
# Assay: relative cell viability vs DMSO, compound alone (fraction); TE10 is an esophageal squamous carcinoma line; higher = less cytotoxic
# Settings: 2 µM; 48 h
# Description: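 TE10 ESCC cells (1,000/well, 384-well plates) were treated with Selleck bioactive library compounds at 2 uM alone for 48 h. Viability was read by CellTiter-Glo and expressed relative to DMSO wells. Two technical replicates (A, B).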
row,SMILES,relative cell viability
1,CCS(=O)(=O)N1CCC([C@@H](C)n2c(C)c(C(=O)NCc3c(OC)cc(C)[nH]c3=O)c3ccccc32)CC1,1.07 ± 0.055
2,"CO[C@H]1C[C@@H]2CC[C@@H](C)[C@@](O)(O2)C(=O)C(=O)N2CCCC[C@H]2C(=O)O[C@H]([C@H](C)C[C@@H]2CC[C@@H](OP(C)(C)=O)[C@H](OC)C2)CC(=O)[C@H](C)/C=C(\C)[C@@H](O)[C@@H](OC)C(=O)[C@H](C)C[C@H](C)/C=C/C=C/C=C/1C [Ridaforolimus (Deforolimus, MK-8669)]",0.86 ± 0.035
3,COc1ccc2cc1Oc1ccc(cc1)C[C@H]1c3c(cc4c(c3Oc3cc5c(cc3OC)CCN(C)[C@@H]5C2)OCO4)CCN1C [Cepharanthine],1.05 ± 0.016
4,COc1ccc(COc2cc3oc(=O)c4cc(C(C)O)ccc4c3cc2OC)cc1 (configuration not stated) [Palomid 529 (P529)],1.14 ± 0.025
5,NC1=N[C@@]2(c3cc(NC(=O)c4ccc(F)cn4)ccc3F)COC[C@H]2CS1,0.901 ± 0.022
6,Cc1ccc(-n2[nH]c(C)c(N=Nc3cccc(-c4cccc(C(=O)O)c4)c3O)c2=O)cc1C [Eltrombopag],0.973 ± 0.05
7,Cc1ccc(-n2[nH]c(C)c(N=Nc3cccc(-c4cccc(C(=O)O)c4)c3O)c2=O)cc1C [Eltrombopag Olamine],1.07 ± 0.035
8,c1ccc(Cn2c(-c3ccc(OCC(C4CCNCC4)n4c(-c5ccccc5)nc5ccccc54)cc3)nc3ccccc32)cc1 (configuration not stated) [Deltarasin],1.116 ± 0.0025
9,CCC(=O)NCC[C@@H]1CCc2ccc3c(c21)CCO3 [Ramelteon],1.15 ± 0.046
10,COC1=CC(=O)C[C@@H](C)[C@]12Oc1c(Cl)c(OC)cc(OC)c1C2=O [Griseofulvin],1.12 ± 0.06
11,CC(C)(C)c1cc(/C=C(\C#N)C(N)=S)cc(C(C)(C)C)c1O [Tyrphostin AG 879],0.886 ± 0.065
12,COc1ccc(-c2coc3cc(O)cc(O)c3c2=O)cc1 [Biochanin A],1.07 ± 0.027
13,NS(=O)(=O)NCCNc1nonc1/C(=N/O)Nc1ccc(F)c(Br)c1,1.159 ± 0.0044
14,O[C@@H](COc1cccc2ncccc12)CN1CCN(C2c3ccccc3[C@@H]3[C@H](c4ccccc42)C3(F)F)CC1 (some centres not stated),1.14 ± 0.082
15,OCC(O)CN1CCN(c2ccccc2)CC1 (configuration not stated) [Dropropizine],1.092 ± 0.0047
16,COc1ccccc1N1CCN(CCN2C(=O)CC3(CCCC3)CC2=O)CC1,1.009 ± 0.0049
17,CN(C)CCC(c1ccc(Cl)cc1)c1ccccn1 (configuration not stated) [Chlorpheniramine Maleate],1.05 ± 0.027
18,CCCC(CCC)C(=O)O [Valproic acid sodium salt (Sodium valproate)],1.17 ± 0.054
19,CCCC(CCC)C(=O)O [Divalproex Sodium],0.924 ± 0.19
20,CN(C)[C@@H](CCOc1cccc2ccccc12)c1ccccc1 [Dapoxetine HCl],0.959 ± 0.0061
21,CC(=O)NC(Cc1ccc(O)cc1)C(=O)NC(CCCN=C(N)N)C(=O)NC(Cc1ccccc1)C(N)=O (configuration not stated),0.828 ± 0.052
22,O=C(NC1CCNCC1)c1n[nH]cc1NC(=O)c1c(Cl)cccc1Cl,0.528 and 0.423
23,CC(C)c1noc(N2CCC(COc3ccc(-c4ccc(S(C)(=O)=O)cc4)nc3)CC2)n1,0.842 ± 0.012
24,O=CN1CC/C(=C/c2ccc3c(c2)OCO3)C1=O,1.121 ± 0.0041
25,"CC[C@H](Nc1ncnc2[nH]cnc12)c1nc2cccc(F)c2c(=O)n1-c1ccccc1 [CAL-101 (Idelalisib, GS-1101)]",1.13 ± 0.026
26,CCOc1cc(N2CCC(O)CC2)ccc1Nc1ncc2c(n1)N(C)c1ccccc1C(=O)N2C,1.05 ± 0.021

row,SMILES,relative cell viability
1,S=C=Nc1cccc(NC(=S)NCCCCNC(=S)Nc2cccc(N=C=S)c2)c1,1.13 ± 0.05
2,Fc1ccc2[nH]ccc2c1-c1nc(N2CCOCC2)c2sc(CN3CCN(CC4CC4)CC3)cc2n1,0.754 ± 0.025
3,CC(CN1c2ccccc2Sc2ccccc21)N(C)C (configuration not stated) [Promethazine HCl],1.02 ± 0.013
4,Cc1ccc(NC(=O)Nc2cc(C(F)(F)F)ccc2F)cc1Nc1ccc2c(c1)NC(=O)/C2=C\c1ccc[nH]1,1.13 ± 0.031
5,CNC(=O)c1ccccc1Sc1ccc2c(/C=C/c3ccccn3)n[nH]c2c1 [Axitinib],0.59 ± 0.12
6,CC1(C)CCCC2(C)C1CCC1(C)OC(=O)CC12 (configuration not stated) [Sclareolide],1.15 ± 0.078
7,CNC(=O)c1ccc(N2C(=S)N(c3cnc(C#N)c(C(F)(F)F)c3)C(=O)C23CCC3)cc1F,1.1 ± 0.018
8,O=C1c2ccccc2-c2n[nH]c3cccc1c23,1.27 ± 0.0019
9,O=C(c1ccc(OCCN2CCCCC2)cc1)c1c(-c2ccc(O)cc2)sc2cc(O)ccc12 [Raloxifene HCl],0.993 ± 0.15
10,COC1(c2sc3c(N4CCOCC4)nc(-c4cnc(N)nc4)nc3c2C)COC1,0.417 ± 0.014
11,CCOC(=O)C1=C(C)NC(C)=C(C(=O)OC)C1c1cccc([N+](=O)[O-])c1 (configuration not stated) [Nitrendipine],1.05 ± 0.12
12,CC(C)C[C@H](NC(=O)CNC(=O)c1cc(Cl)ccc1Cl)B1OC(=O)CC(CC(=O)O)(C(=O)O)O1 (some centres not stated),0.312 ± 0.0064
13,CC1CCc2cc(F)cc3c(=O)c(C(=O)O)cn1c23 (configuration not stated) [Flumequine],0.878 ± 0.065
14,CCCCOc1ccc(OCCCN2CCOCC2)cc1 [Pramoxine HCl],1.06 ± 0.058
15,C[C@@H](O)[C@H]1C(=O)N2C(C(=O)OCOC(=O)C(C)(C)C)=C(SC3CN(C4=NCCS4)C3)[C@H](C)[C@H]12 [Tebipenem Pivoxil],1.14 ± 0.037
16,CN[C@@H](C)C(=O)N[C@H](C(=O)N1CCC[C@H]1C(=O)N[C@H](C(=O)NCCCCCCNC(=O)[C@@H](NC(=O)[C@@H]1CCCN1C(=O)[C@@H](NC(=O)[C@H](C)NC)C1CCCCC1)C(c1ccccc1)c1ccccc1)C(c1ccccc1)c1ccccc1)C1CCCCC1,0.871 ± 0.0093
17,COc1ccc(-n2nc(C(N)=O)c3c2C(=O)N(c2ccc(N4CCCCC4=O)cc2)CC3)cc1 [Apixaban],1.1 ± 0.027
18,COc1ccc(C(C)=O)c(O)c1 [Paeonol],1.11 ± 0.031
19,COc1c(O)cc2c(c1O)[C@@H]1O[C@H](CO)[C@@H](O)[C@H](O)[C@H]1OC2=O [Bergenin],1.07 ± 0.043
20,CC(C)[C@H]1CC[C@H](C(=O)N[C@H](Cc2ccccc2)C(=O)O)CC1 [Nateglinide],0.922 ± 0.1
21,Nc1cccc(-c2cc3c(Oc4cccc(O)c4)ncnc3[nH]2)c1,1.01 ± 0.043
22,COc1ccccc1OCCNCC(O)COc1cccc2[nH]c3ccccc3c12 (configuration not stated) [Carvedilol],0.935 ± 0.019
23,CC(C)c1nc(CN(C)C(=O)N[C@H](C(=O)N[C@@H](Cc2ccccc2)C[C@H](O)[C@H](Cc2ccccc2)NC(=O)OCc2cncs2)C(C)C)cs1 [Ritonavir],1.13 ± 0.062
24,O=C(Nc1cccc(Cl)c1)Nc1ncc(CCNc2ncnc3ccsc23)s1 [SNS-314 Mesylate],1.02 ± 0.085
25,CCc1c(C(=O)NCCc2ccc(N3CCCCC3)cc2)[nH]c2ccc(Cl)cc12,0.95 ± 0.048
26,CCCS(=O)(=O)Nc1ccc(F)c(C(=O)c2c[nH]c3ncc(Cl)cc23)c1F,1.24 ± 0.017

row,SMILES,relative cell viability
1,CCN1CCCC1CNC(=O)c1cc(S(=O)(=O)CC)c(N)cc1OC (configuration not stated) [Amisulpride],1.298 ± 0.0039
2,Nc1nc(N)nc(-c2cc(Cl)ccc2Cl)n1 [Irsogladine],1.04 ± 0.029
3,CNC(=O)CN1CCC(Oc2cc3c(Nc4cccc(Cl)c4F)ncnc3cc2OC)CC1 [AZD8931 (Sapitinib)],1.21 ± 0.015
4,CCC(C)(C)c1ccc(CC(C)CN2C[C@@H](C)O[C@@H](C)C2)cc1 (some centres not stated) [Amorolfine HCl],0.85 ± 0.029
5,"CC(C)(C)C#Cc1cc(N(C(=O)[C@H]2CC[C@H](C)CC2)[C@H]2CC[C@H](O)CC2)c(C(=O)O)s1 [VX-222 (VCH-222, Lomibuvir)]",1.1786 ± 0.00026
6,CC(C)N(CCC(=O)c1ccc2ccccc2c1)Cc1ccccc1,0.964 ± 0.065
7,CCOC(=O)c1ccc(C#Cc2ccc3c(c2)C(C)(C)CCS3)nc1 [Tazarotene],1.11 ± 0.026
8,CC1=NN(c2ccc(C(=O)O)cc2)C(=O)C1=Cc1ccc(-c2cc(C)c(C)cc2[N+](=O)[O-])o1,1.04 ± 0.022
9,Cn1c(=O)c(F)c(Nc2ccc(I)cc2F)c2c(=O)n(C[C@@H](O)CO)cnc21,0.759 ± 0.013
10,COc1ccc(/C=C/C(=O)C2(C(=O)/C=C/c3ccc(OC)c(OC)c3)CCCCC2)cc1OC,0.726 ± 0.088
11,COc1ccc(-c2cc3c(C)nc(N)nc3n([C@H]3CC[C@H](OCCO)CC3)c2=O)cn1,0.478 ± 0.012
12,CCOc1nc2cccc(C(=O)OC(C)OC(=O)OC3CCCCC3)c2n1Cc1ccc(-c2ccccc2-c2nn[nH]n2)cc1 (configuration not stated) [Candesartan Cilexetil],0.982 ± 0.11
13,Nc1ccc(S(N)(=O)=O)cc1 [Sulfanilamide],1.1 ± 0.041
14,CCN1CCC[C@H]1CNC(=O)c1cc(S(N)(=O)=O)ccc1OC [Levosulpiride],1.01 ± 0.068
15,CCCNS(=O)(=O)Nc1ncnc(OCCOc2ncc(Br)cn2)c1-c1ccc(Br)cc1 [Macitentan],1.14 ± 0.013
16,N#CC(=C(/N)Sc1ccccc1N)/C(C#N)=C(\N)Sc1ccccc1N,1.15 ± 0.088
17,NC(=O)[C@@H](CCC(F)(F)F)N(Cc1ccc(-c2ncon2)cc1F)S(=O)(=O)c1ccc(Cl)cc1,1.14 ± 0.1
18,COc1ccc(CNCc2cccc3ccccc23)cc1,1.02 ± 0.017
19,Cc1[nH]c(/C=C2\C(=O)Nc3ccc(S(=O)(=O)Cc4c(Cl)cccc4Cl)cc32)c(C)c1C(=O)N1CCC[C@@H]1CN1CCCC1,1.22 ± 0.029
20,C=CCN1CCCC1CNC(=O)c1cc2nn[nH]c2cc1OC (configuration not stated) [Alizapride HCl],1.11 ± 0.11
21,Nc1nc(Nc2ccc(S(N)(=O)=O)cc2)nn1C(=O)c1c(F)cccc1F,1.04 ± 0.038
22,CC(C)c1onc(-c2c(Cl)cccc2Cl)c1COc1ccc(/C=C/c2cccc(C(=O)O)c2)c(Cl)c1,1.01 ± 0.022
23,NC(=O)CCCSc1nc(N)nc(-c2c(Cl)cc3c4c(cccc24)COC3)n1,0.613 ± 0.024
24,CC(C)(Oc1ccc(C2CC2(Cl)Cl)cc1)C(=O)O (configuration not stated) [Ciprofibrate],1.1 ± 0.028
25,NCc1c[nH]c(=S)n1[C@H]1CCc2c(F)cc(F)cc2C1 [Nepicastat (SYN-117) HCl],1.13 ± 0.039
